In a collection of fitness landscapes (doi:10.1016/j.celrep.2020.107928):
The full ranking holds about 81,000 sequences; the median of “one-hybrid fitness for binding NBS DNA” is about -0.1, and the highest 2% start at about 0.36. This is one part of the list.

B1: Caulobacter ParB omega fusion; a variant is named by its letters at X, in order, B8GW30 (parent)
chain: MESVVVGEPGMSEGRRGLGRGLSALLGEVDAAPAQAPGEQLGGSREAPIEILQRNPDQPRRTFREEDLEDLSNSIREKGVLQPILVRPSPDTAGEYQIVAGERAWRAAQRAGLKTVPIMVRELDDLAVLEIGIIENVQRADLNVLEEALSYKVLMEKFERTQENIAQTIGKSXSHVANXMRLLXLPDEVQSYLVSGELTAXHARAIAAAADPVALAKQIIEGGLSVRETEALARKAPNLSAGKSKGGRPPRVKDTDTQALESDLSSVLGLDVSIDHRGSTGTLTITYATLEQLDDLCNRLTRGI

Variants of: B1
Assay: one-hybrid fitness for binding NBS DNA (the Noc-binding site; scaled: cognate 1, non-cognate 0); higher = stronger binding
Settings: with NBS DNA site
Procedure, shortened: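 The reporter was HIS3, with the binding site 19 bp from the promoter, in E. coli USO used for bacterial one-hybrid selection of Caulobacter ParB libraries with four specificity codons randomised. Growth was on M9 lacking histidine, with 0.1 mM IPTG and 5 mM 3-AT, for 48 hours at 37°C. Illumina sequencing covered plasmids before and after selection; three replicate libraries were pooled and variants with under 10 reads dropped. A fitness score is the log change in variant-to-wild-type read ratio, rescaled to the cognate and non-cognate references.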

one-hybrid fitness for binding NBS DNA, 0.656:
QTMR

one-hybrid fitness for binding NBS DNA, 0.446:
RHTS

one-hybrid fitness for binding NBS DNA, ≤ 0.2:
AKTT
KTLG
TLFR
VHLC
ARRC
RSHY
SLYD
FTTE
ISQM
ERPL
RSLV
SMYC
VSSC
LGTW
TPRP
DCVT
FTTS
TVVV
DYRM
TSFW
MDHG
MANV
SEGS
FRLP
TSMM
VECG
RPCK
HHAW
AIVV
IAQS
RTDP
QFEV
EILS
AFNR
MLTD
NIAR
HYPC
KLAN
SMGH
AVAP
AWGV
DQMR
PYVF
PTFF
KDVA
MQDR
HSKM
GDIS
EYAG
RWYR
PPTF
RVGD
PCRE
SKGR
YSRA
ICAY
HQPT
KLKK
SVWS
SRHH
NSLL
KKTG
HVTF
PHLE
EDEN
ARVI
DRGF
TQWG
SRNW
IDQT
RQFN
RPPV
PSKN
QFST
RMYK
DCTT
LMHI
SFCG
PGLH
ATIY
IKEC
GASA
AASL
HTCI
RKLC
TDLV
RCQL
MYNS
GYAY
LKVR
SPKQ
VHRY
NLQD

one-hybrid fitness for binding NBS DNA, 0.218:
RKGC

one-hybrid fitness for binding NBS DNA, 0.433:
RSTS

one-hybrid fitness for binding NBS DNA, 0.229:
QRSL
